# The other results are listed elsewhere or left out.
# B1: SSR1 (Sclerotium rolfsii), A0A0M3KL30 (protein)
# chain: TYKITVRVYQTNPDAFFHPVEKTVWKYANGGTWTITDDQHVLTMGGSGTSGTLRFHADNGESFTATFGVHNYKRWCDIVTNLAADETGMVINQQYYSQKNREEARERQLSNYQVKNAKGRNFQIVYTEAEGNDLHANLIIG
# How the values were obtained:
# Test in all cases: glycan array binding signal (z-score within array); higher = stronger binding
# Details in all cases: glycan notation: IUPAC condensed, linker removed
# [1] = target: GlcNAc(b1-4)GlcNAc(b1-4)GlcNAc(b1-4)GlcNAc(b1-4)GlcNAc
# How it was run: (§1)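 Glycan array binding is given as a within-array Z-score, which can be read as non-binding when negative. The arrays, 3228 of them, came from the Consortium for Functional Glycomics database and were retained only where the protein sequence was available. Z-scores were averaged across arrays of the same protein sequence at different concentrations or buffers and across linkers.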
# [2] = target: GlcNAc(b1-4)GlcNAc(b1-4)GlcNAc(b1-4)GlcNAc(b1-4)GlcNAc(b1-4)GlcNAc
# How it was run: as §1
# [3] = target: GlcNAc(b1-4)[GlcNAc(b1-6)]GalNAc
# How it was run: as §1
# [4] = target: GlcNAc(b1-6)Gal(b1-4)GlcNAc
# How it was run: as §1
# GlcNAc(b1-6)GalNAc = target: GlcNAc(b1-6)GalNAc
# How it was run: as §1
# [5] = target: GlcNAc6S(b1-3)Gal(b1-4)GlcNAc
# How it was run: as §1
# Kdn(a2-3)Gal(b1-3)GalNAc = target: Kdn(a2-3)Gal(b1-3)GalNAc
# How it was run: as §1
# Kdn(a2-3)Gal(b1-3)GlcNAc = target: Kdn(a2-3)Gal(b1-3)GlcNAc
# How it was run: as §1
# Kdn(a2-3)Gal(b1-4)Glc = target: Kdn(a2-3)Gal(b1-4)Glc
# How it was run: as §1
# Kdn(a2-3)Gal(b1-4)GlcNAc = target: Kdn(a2-3)Gal(b1-4)GlcNAc
# How it was run: as §1
# [6] = target: Kdn(a2-3)Gal(b1-4)[Fuc(a1-3)]GlcNAc
# How it was run: as §1
# Kdn(a2-6)Gal(b1-4)GlcNAc = target: Kdn(a2-6)Gal(b1-4)GlcNAc
# How it was run: as §1
# [7] = target: Man(a1-2)Man(a1-2)Man(a1-3)Man
# How it was run: as §1
# [8] = target: Man(a1-2)Man(a1-2)Man(a1-6)[Man(a1-3)]Man
# How it was run: as §1
# Man(a1-2)Man(a1-3)Man = target: Man(a1-2)Man(a1-3)Man
# How it was run: as §1
# [9] = target: Man(a1-2)Man(a1-3)[Man(a1-2)Man(a1-6)]Man
# How it was run: as §1
# [10] = target: Man(a1-2)Man(a1-3)[Man(a1-2)Man(a1-6)]Man(a1-6)[Man(a1-2)Man(a1-2)Man(a1-3)]Man
# How it was run: as §1
# [11] = target: Man(a1-2)Man(a1-3)[Man(a1-2)Man(a1-6)]Man(a1-6)[Man(a1-2)Man(a1-2)Man(a1-3)]Man(b1-4)GlcNAc(b1-4)GlcNAc
# How it was run: as §1
# [12] = target: Man(a1-2)Man(a1-3)[Man(a1-6)]Man(a1-6)[Man(a1-2)Man(a1-3)]Man(b1-4)GlcNAc(b1-4)GlcNAc
# How it was run: as §1
# [13] = target: Man(a1-2)Man(a1-6)[Man(a1-3)]Man(a1-6)[Man(a1-2)Man(a1-2)Man(a1-3)]Man
# How it was run: as §1
# [14] = target: Man(a1-2)Man(a1-6)[Man(a1-3)]Man(a1-6)[Man(a1-2)Man(a1-2)Man(a1-3)]Man(b1-4)GlcNAc(b1-4)GlcNAc
# How it was run: as §1
# Man(a1-3)[Man(a1-6)]Man = target: Man(a1-3)[Man(a1-6)]Man
# How it was run: as §1
# [15] = target: Man(a1-3)[Man(a1-6)]Man(a1-6)[Man(a1-2)Man(a1-3)]Man(b1-4)GlcNAc(b1-4)GlcNAc
# How it was run: as §1
# [16] = target: Man(a1-3)[Man(a1-6)]Man(a1-6)[Man(a1-3)]Man
# How it was run: as §1
# [17] = target: Man(a1-3)[Man(a1-6)]Man(a1-6)[Man(a1-3)]Man(b1-4)GlcNAc(b1-4)GlcNAc
# How it was run: as §1
# [18] = target: Man(a1-3)[Man(a1-6)]Man(b1-4)GlcNAc(b1-4)GlcNAc
# How it was run: as §1
# [19] = target: Man(a1-3)[Man(a1-6)]Man(b1-4)GlcNAc(b1-4)[Fuc(a1-6)]GlcNAc
# How it was run: as §1
# Man(a1-6)Man = target: Man(a1-6)Man
# How it was run: as §1
# Man(b1-4)GlcNAc = target: Man(b1-4)GlcNAc
# How it was run: as §1
# MurNAc(b1-4)GlcNAc = target: MurNAc(b1-4)GlcNAc
# How it was run: as §1
# Neu5Ac(a2-3)Gal = target: Neu5Ac(a2-3)Gal
# How it was run: as §1
# [20] = target: Neu5Ac(a2-3)Gal(b1-3)GalNAc
# How it was run: as §1
# [21] = target: Neu5Ac(a2-3)Gal(b1-3)GalNAc(b1-3)Gal(a1-4)Gal(b1-4)Glc
# How it was run: as §1
# [22] = target: Neu5Ac(a2-3)Gal(b1-3)GalNAc(b1-4)Gal(b1-4)Glc
# How it was run: as §1
# [23] = target: Neu5Ac(a2-3)Gal(b1-3)GalNAc(b1-4)[Neu5Ac(a2-3)]Gal(b1-4)Glc
# How it was run: as §1
# [24] = target: Neu5Ac(a2-3)Gal(b1-3)GalNAc(b1-4)[Neu5Ac(a2-8)Neu5Ac(a2-3)]Gal(b1-4)Glc
# How it was run: as §1
# [25] = target: Neu5Ac(a2-3)Gal(b1-3)GalNAc6S
# How it was run: as §1
# [26] = target: Neu5Ac(a2-3)Gal(b1-3)GlcNAc
# How it was run: as §1
# [27] = target: Neu5Ac(a2-3)Gal(b1-3)GlcNAc(b1-2)Man
# How it was run: as §1
# [28] = target: Neu5Ac(a2-3)Gal(b1-3)GlcNAc(b1-2)Man(a1-3)[GlcNAc(b1-4)][Neu5Ac(a2-3)Gal(b1-3)GlcNAc(b1-2)Man(a1-6)]Man(b1-4)GlcNAc(b1-4)GlcNAc
# How it was run: as §1
# [29] = target: Neu5Ac(a2-3)Gal(b1-3)GlcNAc(b1-2)Man(a1-3)[Neu5Ac(a2-3)Gal(b1-3)GlcNAc(b1-2)Man(a1-6)]Man(b1-4)GlcNAc(b1-4)GlcNAc
# How it was run: as §1
# [30] = target: Neu5Ac(a2-3)Gal(b1-3)GlcNAc(b1-2)[Neu5Ac(a2-3)Gal(b1-3)GlcNAc(b1-4)]Man(a1-6)[Neu5Ac(a2-3)Gal(b1-3)GlcNAc(b1-2)Man(a1-3)]Man(b1-4)GlcNAc(b1-4)GlcNAc
# How it was run: as §1
# [31] = target: Neu5Ac(a2-3)Gal(b1-3)GlcNAc(b1-3)Gal(b1-3)GlcNAc
# How it was run: as §1
# [32] = target: Neu5Ac(a2-3)Gal(b1-3)GlcNAc(b1-3)Gal(b1-4)GlcNAc
# How it was run: as §1
# [33] = target: Neu5Ac(a2-3)Gal(b1-3)GlcNAc(b1-3)GalNAc
# How it was run: as §1
binder,measurement,setting,value
B1,glycan array binding signal (z-score),[1],0.847
same,glycan array binding signal (z-score),[2],0.686
same,glycan array binding signal (z-score),[3],-0.006
same,glycan array binding signal (z-score),[4],0.876
same,glycan array binding signal (z-score),GlcNAc(b1-6)GalNAc,1.03
same,glycan array binding signal (z-score),[5],-0.34
same,glycan array binding signal (z-score),Kdn(a2-3)Gal(b1-3)GalNAc,0.581
same,glycan array binding signal (z-score),Kdn(a2-3)Gal(b1-3)GlcNAc,-0.341
same,glycan array binding signal (z-score),Kdn(a2-3)Gal(b1-4)Glc,-0.338
same,glycan array binding signal (z-score),Kdn(a2-3)Gal(b1-4)GlcNAc,-0.338
same,glycan array binding signal (z-score),[6],-0.315
same,glycan array binding signal (z-score),Kdn(a2-6)Gal(b1-4)GlcNAc,-0.341
same,glycan array binding signal (z-score),[7],-0.337
same,glycan array binding signal (z-score),[8],-0.325
same,glycan array binding signal (z-score),Man(a1-2)Man(a1-3)Man,-0.334
same,glycan array binding signal (z-score),[9],-0.348
same,glycan array binding signal (z-score),[10],-0.346
same,glycan array binding signal (z-score),[11],-0.548
same,glycan array binding signal (z-score),[12],-0.326
same,glycan array binding signal (z-score),[13],-0.348
same,glycan array binding signal (z-score),[14],-0.322
same,glycan array binding signal (z-score),Man(a1-3)[Man(a1-6)]Man,-0.331
same,glycan array binding signal (z-score),[15],-0.304
same,glycan array binding signal (z-score),[16],-0.335
same,glycan array binding signal (z-score),[17],-0.33
same,glycan array binding signal (z-score),[18],0.429
same,glycan array binding signal (z-score),[19],-0.342
same,glycan array binding signal (z-score),Man(a1-6)Man,-0.323
same,glycan array binding signal (z-score),Man(b1-4)GlcNAc,-0.331
same,glycan array binding signal (z-score),MurNAc(b1-4)GlcNAc,-0.336
same,glycan array binding signal (z-score),Neu5Ac(a2-3)Gal,-0.338
same,glycan array binding signal (z-score),[20],1.24
same,glycan array binding signal (z-score),[21],-0.325
same,glycan array binding signal (z-score),[22],-0.271
same,glycan array binding signal (z-score),[23],-0.34
same,glycan array binding signal (z-score),[24],-0.341
same,glycan array binding signal (z-score),[25],1.65
same,glycan array binding signal (z-score),[26],-0.325
same,glycan array binding signal (z-score),[27],-0.35
same,glycan array binding signal (z-score),[28],-0.31
same,glycan array binding signal (z-score),[29],-0.317
same,glycan array binding signal (z-score),[30],-0.302
same,glycan array binding signal (z-score),[31],-0.349
same,glycan array binding signal (z-score),[32],-0.343
same,glycan array binding signal (z-score),[33],-0.21
